Test results: PubChem BioAssay AID463173 (ICCB-Longwood Screening Facility, Harvard Medical School, 2010)
Hit rate of the full screen: of about 52,000 compounds, about 1,700 (3.3%) were called active. Cut-off read from the data, not from the text of the source: active = survival mostly below about 52% (no sharp cut-off); inactive = mostly above about 56%. The list shows a part of the results.

The compounds below were run on Wild type (assay: growth inhibition of S. aureus wild type versus tarO mutant, primary screen, teichoic acid synthesis inhibitors, RN4220, OD600 (AID 463173)). Conditions: S. aureus RN4220 wild type/DeltatarO growth, OD600, 18 h, hits give low values, screened at 18.75 µg/mL (by protocol).
For `COc1ccc(CCNC(=O)c2ccc(-n3c(C)cc4c3CCC(C)C4)cc2)cc1OC` (configuration not stated), the survival was inactive: 64%.
With `COc1ccc(C(=O)c2cn(CC(=O)Nc3cc(OC)cc(OC)c3)c3ccc(OC)cc3c2=O)cc1` the survival was inactive: 88%.
For `COC(=O)c1ccccc1NC(=O)Cn1c(=O)n(CCC(=O)NCc2ccc3c(c2)OCO3)c(=O)c2ccccc21`, the survival was inactive: 100%.
For `Cc1ccc(Cn2nc3n(c2=O)-c2cc(Cl)ccc2OC3)cc1`, the survival was inactive: 76%.
With `COc1ccc(-n2c(-c3cccc(F)c3)nc3c(cnn3-c3ccc(C)cc3)c2=O)cc1` the survival was inactive: 117%.
`Cc1ccc(-c2csc(-c3c(N)c(C(=O)c4ccc5c(c4)OCO5)n4ccccc34)n2)cc1` was tested, and the survival was inactive: 103%.
In the case of `Cc1ccc(-c2cn3nc(N4CCCC(C(=O)NCc5ccccc5F)C4)sc3n2)cc1` (configuration not stated), the survival is reported as inactive: 71%.
`CC1=C(C(=O)OC2CCCC2)C(c2c(F)cccc2Cl)CC(=O)N1` (configuration not stated) was tested, and the survival was inactive: 87%.
In the case of `CS(=O)(=O)N1CCC(C(=O)NC2CCCCC2)CC1`, the survival is reported as inactive: 107%.
With `CCOC(=O)c1c(S(=O)(=O)N2CCC(C(=O)NCc3cccc(OC)c3)CC2)c(C)n(C)c1C` the survival was inactive: 68%.
For `Cn1ccnc1SCC(=O)Nc1cccc(Br)c1`, the survival was inactive: 71%.
For `COc1cccc(N2C(=O)C(CC(=O)Nc3cccc(F)c3)N(C3CCCC3)C2=O)c1` (configuration not stated), the survival was inactive: 124%.
With `Cc1ccc(CC2CC(=O)N(C3CCCCC3)C2=O)cc1` (configuration not stated) the survival was inactive: 114%.
`Cc1cccc(N(C)C(=O)Cn2c(=O)oc3cc(S(=O)(=O)N4CCCCC4)ccc32)c1` was tested, and the survival was inactive: 76%.
For `COc1ccc(-c2nc3ccccc3o2)cc1NC(=O)Cc1ccc(Cl)cc1`, the survival was inactive: 68%.
`Cc1ccc(CNC(=O)c2ccc3c(c2)CCN3S(=O)(=O)c2ccc(Br)cc2)cc1` was tested, and the survival was inactive: 90%.
For `S=c1nc(-c2csc3c2CCCC3)[nH][nH]1`, the survival was inactive: 101%.
For `COc1ccc(C2CC(=O)c3cc(-c4nc(-c5cccc([N+](=O)[O-])c5)cs4)c(=O)n(-c4ccccc4N)c3C2)cc1` (configuration not stated), the survival was inactive: 154%.
For `Cc1nc2ccn(Cc3ccco3)c(=O)c2cc1C(=O)NCc1ccc(Cl)cc1`, the survival was inactive: 60%.
With `NC(=O)c1cc(S(=O)(=O)NCc2cccc(Br)c2)cs1` the survival was inactive: 77%.
With `COC(=O)c1ccc(NC(=O)Cn2c(=O)oc3ccccc32)cc1` the survival was inactive: 80%.
In the case of `CCN(c1ccc(OC)cc1)S(=O)(=O)c1ccc2[nH]c3c(c2c1)CCCCC3`, the survival is reported as inactive: 87%.
For `COc1ccc(N2CC(NC(=O)C3CCCCC3)CC2=O)cc1` (configuration not stated), the survival was inactive: 80%.
For `CCn1c(SCC(=O)Nc2cc(C)ccc2F)nnc1-c1ccccc1O`, the survival was inactive: 63%.
For `COc1ccc(CC(=O)N2CC(=O)Nc3ccc(F)cc3C2c2ccccc2)cc1` (configuration not stated), the survival was inactive: 76%.
In the case of `CCOC(=O)CNC(=O)N1CCN(S(=O)(=O)c2ccc3c(ccn3C)c2)CC1`, the survival is reported as active: 0%.
For `CCCOc1ccc(C2c3c(oc4ccccc4c3=O)C(=O)N2c2nnc(C(C)C)s2)cc1` (configuration not stated), the survival was inactive: 59%.
For `CC1CCCCN1C(=O)c1cccc(C(=O)N2CCCCC2C)c1` (configuration not stated), the survival was inactive: 109%.
For `CNC(=O)N(O)c1ccccc1`, the survival was inactive: 114%.
For `CC(=O)c1ccc(NC(=O)C2CCN(S(=O)(=O)c3ccc4[nH]c5c(c4c3)CCCCC5)CC2)cc1`, the survival was inactive: 71%.
In the case of `COc1ccccc1CNC(=O)c1ccc(N2CCCC2)c(NC(=O)NCc2ccc(C)cc2)c1`, the survival is reported as inactive: 60%.
`Cc1ccccc1CNC(=O)Cn1c(=O)c2cccn2c2cccnc21` was tested, and the survival was inactive: 85%.
In the case of `CCc1ccc(CNC(=O)C2CCN(c3nn4cc(-c5ccc(OC)cc5)nc4s3)CC2)cc1`, the survival is reported as inactive: 81%.
In the case of `COc1ccc(C2=NC(c3ccccc3)=Nc3ccc(C)cc3N2)cc1`, the survival is reported as inactive: 88%.
With `COC(=O)c1ccccc1NC(=O)c1ccc(CN2CC(=O)N3CCCCC3C2=O)cc1` (configuration not stated) the survival was inactive: 67%.
`CN1CCN(C(=O)c2ccc3c(c2)N(Cc2ccc(F)cc2)C(=O)c2ccccc2S3(=O)=O)CC1` was tested, and the survival was inactive: 85%.
With `COc1ccc(NC(=O)CSc2nnc(-c3ccncc3)n2-c2ccccc2)cc1` the survival was inactive: 73%.
In the case of `COc1ccccc1N1CCN(CC(O)COc2ccc(Cl)c(C)c2)CC1` (configuration not stated), the survival is reported as inactive: 66%.
For `O=C(CSc1n[nH]c(-c2ccc(F)cc2)n1)N1CCN(c2ccc(F)cc2)CC1`, the survival was active: -6%.
With `CCOC(=O)c1cc(S(=O)(=O)Nc2ccccc2)[nH]n1` the survival was inactive: 73%.
`CCC(C)NC(=O)c1c2c(nc3ccccc13)C(=O)N(C1CCCCC1)C2` (configuration not stated) was tested, and the survival was inactive: 80%.
`CCOC(=O)N[C@H](Cc1c[nH]c2ccccc12)C(=O)Nc1cccc(Cl)c1` was tested, and the survival was inactive: 124%.
For `COc1ccc(OC)c(NC(=O)c2nc(S(=O)(=O)Cc3ccc(F)cc3)ncc2Cl)c1`, the survival was active: -3%.
For `COc1ccc(C(=O)c2cn(CC(=O)Nc3cc(C)ccc3C)c3nc(C)ccc3c2=O)cc1`, the survival was inactive: 146%.
With `CCOCCCN(Cc1ccco1)C(=O)c1cc2c(s1)-c1c(C)cccc1OC2` the survival was active: 12%.
With `CC(C)Oc1ccc(CNC(=O)C2=Cc3ccccc3OC2)cc1` the survival was inactive: 60%.
With `O=C(Oc1ccc(F)cc1)N1CCOCC1` the survival was inactive: 107%.
With `CCc1ccc(C2CC(=O)Nc3c2c(=O)n(C)c2ncnn32)cc1` (configuration not stated) the survival was inactive: 142%.
`COc1ccc(N2CCN(C(CNC(=O)c3ccc(OC)c(OC)c3)c3cccnc3)CC2)cc1` (configuration not stated) was tested, and the survival was inactive: 81%.
For `NC(=O)C1CCN(c2csc3ccc(F)cc3c2=O)CC1`, the survival was inactive: 70%.
With `CCn1c(CN2CCN(C)CC2)nc2cc(NC(=O)c3ccc([N+](=O)[O-])cc3)ccc21` the survival was inactive: 86%.
In the case of `CCOc1ccc(S(=O)(=O)N2CCCCC2C)c2ccccc12` (configuration not stated), the survival is reported as inactive: 115%.
In the case of `CCCCSc1nnc2c(n1)OC(c1ccc(Br)s1)Nc1ccccc1-2` (configuration not stated), the survival is reported as active: 9%.
`Cc1ccc(NC(=O)CN(Cc2ccccc2)S(=O)(=O)c2ccc3nc(C)sc3c2)c(C)c1` was tested, and the survival was inactive: 84%.
In the case of `Cc1ccc(-c2nc(CSc3nnc(C)n4c3cc3occc34)c(C)o2)cc1`, the survival is reported as inactive: 91%.
In the case of `CCCCOC(=O)c1ccc(-n2nnc3c(sc4nc(C)cc(C)c43)c2=O)cc1`, the survival is reported as inactive: 102%.
For `CN(C)c1ccc(CNC(=O)CCCN2C(=O)c3cccnc3Oc3ccc(Cl)cc32)cc1`, the survival was inactive: 68%.
